Source: PubChem BioAssay AID624417 (National Center for Advancing Translational Sciences (NCATS), 2012)
In all, about 410,000 compounds went through this assay and about 6,400 (1.6%) were called active. Inconclusive results, whose numbers are uncertain, are shown with a selection of clear calls. The call rests on the fitted dose curve; in most records, active means well fitted inhibition curve with a large enough effect; inconclusive means small, poorly fitted or top-dose-only effect; inactive means no such curve, though single readings can be large or run the other way. Potencies of inconclusive entries are left out as doubtful fits.

target: Glucagon-like peptide 1 receptor (Homo sapiens) (UniProt P43220); assay: qHTS of GLP-1 Receptor Inverse Agonists (Inhibition Mode); details: HEK293 GLP-1R CRE-luciferase, luminescence, 24 h, GLP-1R form is constitutively active; series mostly up to 38.3 µM; further: nearly all actives have a fitted effect of over 55% in size
Method in brief: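 GLP-1R inverse agonism mode: basal reporter luminescence in engineered HEK293 cells measured after one day of compound exposure at 37 deg C, with a 12 min room-temperature detection step.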
Potency means the concentration at half of the fitted maximal effect; tags describe the fitted curve by direction and shape.

Sequence of UniProt P43220 (P43220 whole entry, looked up): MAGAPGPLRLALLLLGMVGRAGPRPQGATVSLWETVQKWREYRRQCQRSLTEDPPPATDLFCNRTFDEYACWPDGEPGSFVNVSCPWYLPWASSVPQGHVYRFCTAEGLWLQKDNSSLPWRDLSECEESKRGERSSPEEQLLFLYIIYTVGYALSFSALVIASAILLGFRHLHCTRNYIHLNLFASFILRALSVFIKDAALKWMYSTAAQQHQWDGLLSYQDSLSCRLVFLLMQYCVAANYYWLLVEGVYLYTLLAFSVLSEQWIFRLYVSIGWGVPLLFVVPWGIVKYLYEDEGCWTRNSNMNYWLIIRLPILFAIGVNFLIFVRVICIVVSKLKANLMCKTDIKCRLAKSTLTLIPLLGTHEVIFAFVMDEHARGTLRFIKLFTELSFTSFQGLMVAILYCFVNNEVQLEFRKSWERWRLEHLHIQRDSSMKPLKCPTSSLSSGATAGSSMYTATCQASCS

SMILES	Potency
CCCCCCn1c(COc2ccccc2F)nnc1SCC(=O)NC1CCS(=O)(=O)C1 (configuration not stated)	inconclusive [inhibitor, single point]
Cc1ccc(Cn2c(C(=O)O)c(CNC3CCCCC3)c3ccc(C)cc32)cc1	inactive
CCN(C(=O)c1cc2c(=O)oc3ccccc3c2s1)c1ccc(C)c(C)c1	inactive
CC(C)CCNc1nc2c(cc1C#N)COC(C)(C)C2	inconclusive [inhibitor, single point]
COc1ccc(CCNC(=O)CSc2nnnn2C)cc1OC	inactive
Cc1occc1C(=O)N/N=C/c1ccc(-c2ccccc2)cc1	inconclusive [inhibitor, single point]
Cc1noc2c1C(c1ccc(N(C)C)cc1)C1=C(CC(C)(C)CC1=O)N2 (configuration not stated)	inactive
Cn1c(=O)c(C(=O)NNC(=O)c2ccccc2F)c(O)c2ccccc21	inconclusive [inhibitor, single point]
CC(C)NC(=O)C1CCC(Cn2c(=O)c3sccc3n(CC(=O)N3CCCC3)c2=O)CC1 (configuration not stated)	inactive
Cc1[nH]c2c(C)cccc2c1CCNC(=O)c1ccc2c(c1[N+](=O)[O-])C(=O)c1ccccc1C2=O	inconclusive [inhibitor, full curve]
COc1cccc(-c2nc(SCC(=O)NCC3CCCO3)c(-c3ccc(C)cc3)[nH]2)c1 (configuration not stated)	inconclusive [inhibitor, single point]
CCn1cc(CNCc2cn(-c3ccccc3C)nc2-c2ccc(OC)c(F)c2)cn1	inconclusive [inhibitor, single point]
N#Cc1ccc(CSc2nnc(NC(=O)CCc3nc4ccccc4c(=O)[nH]3)s2)cc1	inactive
CCN(CC)CCNC(=O)Cn1nc(Cc2ccccc2)c2ccccc2c1=O	inconclusive [inhibitor, single point]
Cc1ccc(OCC(=O)N(Cc2ccc(Cl)cc2)Cc2ccco2)cc1C	inconclusive [inhibitor, single point]
O=C1NC2(C=Cc3c(ccc4ccccc34)O2)Oc2ccccc21 (configuration not stated)	inconclusive [inhibitor, single point]
CCn1c2ccccc2c2cc(NC(=O)c3cc(OC)cc(OC)c3)ccc21	inconclusive [inhibitor, full curve, poor fit]
COc1ccc(OC)c(C(=O)c2c(C)oc3cc(Br)c(O)c(CN(C)C)c23)c1	inconclusive [inhibitor, partial curve, poor fit]
Cc1ccccc1C(=O)NNC(=O)c1ccoc1C	inconclusive [inhibitor, single point]
Cc1nn(Cc2ccc(C(=O)NN)o2)c(C)c1Cl	inactive
O=C(N/N=C/C=C/c1ccccc1)c1n[nH]c2c1CCC2	inconclusive [inhibitor, full curve, poor fit]

SMILES	Potency
Cc1cc(Cl)ccc1NC(=S)Nc1ccccn1	inconclusive [inhibitor, partial curve, poor fit]
O=C(NCCC(=O)N1CCN(c2cccc(Cl)c2)CC1)c1ccc(Br)cc1	inconclusive [inhibitor, single point]
COc1ccc(-c2n[nH]c(=S)n2Cc2ccccc2)cc1OC	inactive
Cc1ccccc1CN1CCN(CC(=O)NCCCN2CCN(c3ccc(F)cc3)CC2)C1=O	inconclusive [inhibitor, partial curve, poor fit]
O=C(CNc1ccccc1)NNC1=NCCC1	inactive
COc1cc(/C=C2\SC(c3ccc(C)cc3)=NC2=O)cc(OC)c1O	inactive
CC1(C)CC(=O)C=C(c2cc3ccccc3s2)C1	inactive
Cc1c(/C=C2\SC(=O)N(CC(=O)Nc3ccc4c(c3)OCO4)C2=O)c2ccccc2n1C	inconclusive [inhibitor, single point]
Cc1nc2ccc(C(=O)N(C)Cc3ccco3)cn2c1N(C)CC1CCCCC1	inconclusive [inhibitor, single point]
COC(=O)c1ccc(OCC2c3cc(OC)c(OC)cc3CCN2C(=O)c2ccccc2C)cc1 (configuration not stated)	inconclusive [inhibitor, single point]
CCc1cc(-c2n[nH]c(C)c2-c2nc3ccccc3n2C)c(O)cc1O	inconclusive [inhibitor, single point]
CCCS(=O)(=O)N1CCN(Cc2ccc3c(c2)c2ccccc2n3CC)CC1	inconclusive [inhibitor, partial curve]
Cc1ccc(-c2nnc(Nc3ccc(Br)cc3)c3ccccc23)cc1S(=O)(=O)NCC1CCCO1 (configuration not stated)	inconclusive [inhibitor, single point]
COc1ccc(-c2ccc(F)cc2)cc1[C@H]1[C@H]2C=CC[C@@H](C)[C@@H]2C(=O)N1Cc1ccccc1	inconclusive [inhibitor, partial curve, poor fit]
O=S(=O)(c1ccc(SCc2ccc(Cl)cc2)nc1)N1CCCC1	inconclusive [inhibitor, single point]
O=C(COC(=O)c1cccc(OC(F)F)c1)Nc1cc(S(=O)(=O)N2CCCC2)ccc1Cl	inactive
COC(=O)Nc1nc(-c2ccccc2)c(C(=O)c2ccccc2)s1	inconclusive [inhibitor, full curve, poor fit]
O=C(NCC1CCOCC1)c1cc(COc2ccc(F)cc2F)on1	inconclusive [inhibitor, single point]
CN(C)CCCNC(=O)C[C@H]1C[C@H](C(=O)N2CCCCC2)[C@@]2(C)c3[nH]c4cc(-c5ccco5)ccc4c3CCN2C1=O	inconclusive [inhibitor, partial curve, poor fit]
COc1ccccc1CN1CCC(CNS(=O)(=O)c2cc(-c3onc(C)c3C)ccc2OC)CC1	inconclusive [inhibitor, full curve, poor fit]
N#Cc1nc(-c2ccc(COc3ccccc3)o2)oc1NCc1cccnc1	inactive
